Laboratory results reported in the supplement of paper PMC10369915.
This is one part of the list. Rule as the data show it: active = 3.2 or more and inactive = the rest. The signal is at background level for most entries.

B1: HPRT1_Y198_D201Y_YF (peptide)
chain: LDFNEYFRFLN
B2: HLA-DQB1_Y62_V59L (peptide)
chain: RYLTRYIYNRE
B3: HLA-DPB1_Y59_R61P (peptide)
chain: LERYIYNPEEF
B4: HPRT1_Y198_D201Y (peptide)
chain: LDYNEYFRYLN
B5: HLA-DRB1_Y107_A103R_YF (peptide)
chain: ARVDTYCRHNF
B6: HLA-DRB1_Y107_A103R (peptide)
chain: ARVDTYCRHNY
B7: HLA-DPB1_Y59_F64Y (peptide)
chain: LERYIYNREEY
B8: HSPA4L_Y600_I601T (peptide)
chain: DLLNSYTENEG
B9: HSD17B4_Y143 (peptide)
chain: MKKQKYGRIIM
B10: HLA-DRB1_Y107_Y107V (peptide)
chain: AAVDTVCRHNY
B11: HLA-DPB1_Y57_YF (peptide)
chain: RFLERYIFNRE
B12: HLA-DRB1_Y107 (peptide)
chain: AAVDTYCRHNY
B13: HSD17B4_Y602 (peptide)
chain: VISNAYVDLAP
B14: HLA-DRB1_Y107_A103E (peptide)
chain: AEVDTYCRHNY
B15: HLA-C_Y137_YF (peptide)
chain: RLLRGYDQSAF
B16: HSPA4L_Y600 (peptide)
chain: DLLNSYIENEG
B17: HLA-E_Y341 (peptide)
chain: GKGGSYSKAEW
B18: HMGB1_Y144_A149E (peptide)
chain: DDKQPYEKKAE
B19: HLA-C_Y31_A35S (peptide)
chain: SHSMRYFDTSV
B20: HLA-DQB1_Y62_Y62S (peptide)
chain: RYVTRSIYNRE
B21: HSPB1_Y133_R136W (peptide)
chain: QDEHGYISWCF
B22: HNRNPA1_Y312_D314N (peptide)
chain: GGGGSYNNFGN
B23: HNF4A_Y144_T139I (peptide)
chain: IRRSSYEDSSL
B24: HLA-C_Y183_L180W (peptide)
chain: EQWRAYLEGTC
B25: HLA-DPB1_Y59_F64Y_YF (peptide)
chain: LERFIYNREEF
B26: HLA-DRB1_Y107_A103L (peptide)
chain: ALVDTYCRHNY
B27: HPRT1_Y81 (peptide)
chain: ADLLDYIKALN
B28: HNRNPA1_Y318_D314N (peptide)
chain: NNFGNYNNQSS
B29: HMGCL_Y198_G203E (peptide)
chain: YSMGCYEISLE
B30: HS3ST5_Y244_I247N (peptide)
chain: ERWLKYFPNEQ
B31: HSP90AB1_Y512 (peptide)
chain: GFEVVYMTEPI
B32: HLA-DQB1_Y62_Y62H (peptide)
chain: RYVTRHIYNRE
B33: HNRNPH3_Y159 (peptide)
chain: GGYNNYGYGND
B34: HP_Y125 (peptide)
chain: EGDGVYTLNNE
B35: HOXB7_Y6_T9A (peptide)
chain: MSSLYYANALF
B36: HNRNPH3_Y159_N163S (peptide)
chain: GGYNNYGYGSD
B37: HLA-DPB1_Y57_E62Q (peptide)
chain: RFLERYIYNRQ

Columns and labels:
Test in all cases: enrichment score (SH2-bound / input frequency) (ratio); bacterial display of known human phosphotyrosine sites (pTyr-Var adds point mutants) read by sequencing; higher = stronger binding; tyrosines were phosphorylated by kinases first
Conditions in all cases: peptide library: pTyr-Var
SHP2 C-SH2 domain E139D = target: SHP2 C-SH2 domain E139D
[1] = target: SHP2 C-SH2 domain wild-type
SHP2 N-SH2 domain L43F = target: SHP2 N-SH2 domain L43F
SHP2 N-SH2 domain T42A = target: SHP2 N-SH2 domain T42A
SHP2 N-SH2 domain T52S = target: SHP2 N-SH2 domain T52S
[2] = target: SHP2 N-SH2 domain wild-type
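Also: displayed peptides selected on beads carrying the immobilized SH2 domain, with library peptides lacking any tyrosine serving as negative controls.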

Binder	enrichment score (SHP2 C-SH2 domain E139D)	enrichment score [1]	enrichment score (SHP2 N-SH2 domain L43F)	enrichment score (SHP2 N-SH2 domain T42A)	enrichment score (SHP2 N-SH2 domain T52S)	enrichment score [2]
B1	inactive: 1.62	inactive: 1.56	inactive: 1.53	inactive: 1.33	inactive: 1.22	inactive: 1.72
B2	inactive: 0.348	inactive: 0.306	inactive: 0.243	inactive: 0.327	inactive: 0.343	inactive: 0.222
B3	inactive: 1.42	inactive: 1.2	inactive: 1.17	inactive: 0.847	inactive: 0.864	inactive: 0.937
B4	inactive: 1.12	inactive: 0.596	inactive: 0.595	inactive: 0.995	inactive: 0.923	inactive: 0.79
B5	inactive: 1.55	inactive: 1.89	inactive: 1.57	inactive: 1.45	inactive: 1.75	inactive: 1.61
B6	inactive: 1.75	inactive: 1.91	inactive: 1.56	inactive: 1.51	inactive: 2.08	inactive: 1.9
B7	inactive: 0.701	inactive: 0.618	inactive: 0.83	inactive: 0.819	inactive: 0.599	inactive: 0.545
B8	inactive: 0.597	inactive: 0.467	inactive: 0.655	inactive: 0.516	inactive: 0.549	inactive: 0.546
B9	active: 3.72	inactive: 2.54	inactive: 2.72	inactive: 2.34	inactive: 2.93	inactive: 2.32
B10	inactive: 0.954	inactive: 1.06	inactive: 0.916	inactive: 0.857	inactive: 1.01	inactive: 1.14
B11	inactive: 2.7	inactive: 2.42	inactive: 2.56	inactive: 1.36	inactive: 1.26	inactive: 2.13
B12	inactive: 1.27	inactive: 1.39	inactive: 1.16	inactive: 1.19	inactive: 1.13	inactive: 1.24
B13	inactive: 0.938	inactive: 1.1	inactive: 1.01	active: 3.64	inactive: 1.04	inactive: 0.869
B14	inactive: 1.66	inactive: 1.19	inactive: 1.76	inactive: 1.32	inactive: 1.37	inactive: 1.7
B15	inactive: 1.02	inactive: 0.967	inactive: 1.2	inactive: 1.09	inactive: 0.889	inactive: 1.02
B16	inactive: 1.06	inactive: 0.908	inactive: 1.15	inactive: 0.859	inactive: 0.79	inactive: 1.08
B17	inactive: 0.676	inactive: 0.543	inactive: 0.511	inactive: 0.528	inactive: 0.59	inactive: 0.61
B18	inactive: 0.463	inactive: 0.555	inactive: 0.416	inactive: 0.534	inactive: 0.42	inactive: 0.504
B19	inactive: 0.839	inactive: 0.816	inactive: 1.08	inactive: 0.9	inactive: 0.97	inactive: 1.1

Binder	enrichment score (SHP2 C-SH2 domain E139D)	enrichment score [1]	enrichment score (SHP2 N-SH2 domain L43F)	enrichment score (SHP2 N-SH2 domain T42A)	enrichment score (SHP2 N-SH2 domain T52S)	enrichment score [2]
B20	inactive: 0.254	inactive: 0.196	inactive: 0.327	inactive: 0.182	inactive: 0.226	inactive: 0.244
B21	inactive: 0.557	inactive: 0.793	inactive: 0.694	inactive: 0.605	inactive: 0.657	inactive: 1.4
B22	inactive: 0.672	inactive: 0.677	inactive: 0.534	inactive: 0.542	inactive: 0.698	inactive: 0.607
B23	inactive: 0.424	inactive: 0.419	inactive: 0.461	inactive: 0.431	inactive: 0.385	inactive: 0.468
B24	inactive: 0.83	inactive: 0.961	inactive: 0.781	inactive: 0.8	inactive: 0.746	inactive: 1.15
B25	inactive: 1.02	inactive: 0.922	inactive: 1.16	inactive: 0.853	inactive: 1.17	inactive: 1
B26	inactive: 1.56	inactive: 1.47	inactive: 1.47	inactive: 1.42	inactive: 1.49	inactive: 1.66
B27	inactive: 1.17	inactive: 1.23	inactive: 1.19	inactive: 1.09	inactive: 1.07	inactive: 1.24
B28	inactive: 0.636	inactive: 0.493	inactive: 0.478	inactive: 0.651	inactive: 0.575	inactive: 0.579
B29	inactive: 0.882	inactive: 1.13	inactive: 0.923	inactive: 0.673	inactive: 0.863	inactive: 1.02
B30	inactive: 1.2	inactive: 1.07	inactive: 0.786	inactive: 0.851	inactive: 0.931	inactive: 0.872
B31	inactive: 0.895	inactive: 0.662	inactive: 0.669	inactive: 0.893	inactive: 0.709	inactive: 0.703
B32	inactive: 0.318	inactive: 0.291	inactive: 0.352	inactive: 0.354	inactive: 0.331	inactive: 0.345
B33	inactive: 0.674	inactive: 0.696	inactive: 0.74	inactive: 0.702	inactive: 0.685	inactive: 0.756
B34	inactive: 0.699	inactive: 0.518	inactive: 0.521	inactive: 0.36	inactive: 0.461	inactive: 0.742
B35	inactive: 1.98	inactive: 1.8	active: 5.39	active: 5.74	active: 6.45	inactive: 2.28
B36	inactive: 0.771	inactive: 0.66	inactive: 0.653	inactive: 0.714	inactive: 0.712	inactive: 1.03
B37	inactive: 0.791	inactive: 0.626	inactive: 0.706	inactive: 0.568	inactive: 0.725	inactive: 0.859
